# Measurements from PubChem BioAssay AID1347043 (National Center for Advancing Translational Sciences (NCATS), 2019).
# The campaign covered roughly 76,000 compounds. About 1,900 (2.5%) were called active. The shares of active, inactive and inconclusive entries below differ from those in the screen. The call rests on the fitted dose curve; in most records, active means well fitted inhibition curve with a large enough effect; inconclusive means small, poorly fitted or top-dose-only effect; inactive means flat fitted curve, though single readings scatter. Potencies of inconclusive entries are doubtful fits and often do not repeat.
# Molecular target: Luciferin 4-monooxygenase (Photinus pyralis) (UniProt P08659)
# Sequence of UniProt P08659 (P08659 whole entry, looked up): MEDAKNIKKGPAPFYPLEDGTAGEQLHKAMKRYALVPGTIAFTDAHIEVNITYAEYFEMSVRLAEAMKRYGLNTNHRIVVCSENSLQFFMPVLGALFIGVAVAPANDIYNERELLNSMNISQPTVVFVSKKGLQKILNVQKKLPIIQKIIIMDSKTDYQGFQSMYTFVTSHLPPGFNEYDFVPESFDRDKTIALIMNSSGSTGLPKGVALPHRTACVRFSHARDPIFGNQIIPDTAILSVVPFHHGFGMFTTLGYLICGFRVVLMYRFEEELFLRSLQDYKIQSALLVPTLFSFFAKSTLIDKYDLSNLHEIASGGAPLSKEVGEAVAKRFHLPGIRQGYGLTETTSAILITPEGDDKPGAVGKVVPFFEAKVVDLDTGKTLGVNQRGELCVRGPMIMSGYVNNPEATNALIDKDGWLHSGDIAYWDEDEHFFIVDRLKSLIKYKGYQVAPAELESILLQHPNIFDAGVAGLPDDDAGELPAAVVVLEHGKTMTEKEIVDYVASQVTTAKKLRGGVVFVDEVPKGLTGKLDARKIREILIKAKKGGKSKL
# Assay: Firefly luciferase inhibition profiling of diverse chemical library using quantitative high-throughput screening; further: nearly all actives have a fitted effect of over 65% in size
# Conditions: purified P. pyralis luciferase, luminescence, biochemical; series mostly up to 115 µM
# Procedure, shortened: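 Luminescence read by CCD imager after adding enzyme (10nM final) to wells holding compound, titrated in qHTS. Substrates 10uM each D-luciferin and ATP; buffer 50mM Tris acetate pH 7.5, 10mM Mg acetate, Tween-20, BSA.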
# Potency means the concentration at half of the fitted maximal effect; tags describe the fitted curve by direction and shape.
row,Structure (SMILES),Potency
1,COc1ccc(CNC(=O)[C@H]2CNC[C@H](C(=O)N3CCCC3)C2)c(F)c1F,inactive
2,Cc1cn2nc(C(=O)NCc3ccccc3C(F)(F)F)cc2c(N2CCCC2)n1,inactive
3,COc1cccc(CCC(=O)N2CCC(Cc3nc(-c4cnccn4)no3)CC2)c1,inactive
4,COCCOc1ccc2c(n1)CCN(C(=O)CCC1CCCC1)C2,"inconclusive: 44.7 µM [inhibitor, partial curve]"
5,CN(C)c1ccc(CN2C[C@H](O)C[C@H]2c2nc(-c3ccncc3)no2)cc1,inactive
6,Cc1nc(CN2Cc3nc(-c4cc5ccccc5o4)ccc3OCC2=O)cs1,"inconclusive: 112 µM [inhibitor, single point]"
7,COc1ccc(CCc2nc(C3CC(=O)N(c4ccc(Cl)cc4)C3)no2)cc1 (centres undefined),inactive
8,Cc1ncoc1C(=O)N1CC[C@@H]2COCCN(Cc3ccncc3)[C@@H]2C1,"inconclusive: 39.8 µM [inhibitor, partial curve, poor fit]"
9,COc1ccc(C(=O)N2CCN(Cc3ccc(=O)n(C)c3)CC2)cn1,"inconclusive: 44.7 µM [inhibitor, partial curve]"
10,C[S+](=O)([O-])c1ccc(-c2cc3c(cn2)CN(CCc2ccccc2)CCN3)cc1,"inconclusive: 70.8 µM [inhibitor, partial curve]"
11,COc1cccc(-c2noc(Nc3ccc4c(c3)OCCO4)n2)c1,active: 0.316 µM
12,COc1cc2cc(CN3CCC[C@@H]3CO)c(-c3cccc(Cl)c3)nc2cc1OC,"inconclusive: 44.7 µM [inhibitor, partial curve]"
13,Cc1noc([C@H]2CCN(C(=O)Nc3ccccc3F)C[C@H]2NC(=O)C2CC2)n1,inactive
14,NS(=O)(=O)c1ccc(CNC(=O)C[C@H]2NC(=O)c3ccccc3NC2=O)cc1,inactive
15,COc1ccc(-c2cc(N3CCCC(NC(=O)c4ccc(OC)c(F)c4)C3)n[nH]2)cc1 (centres undefined),"inconclusive: 5.62 µM [inhibitor, full curve]"
16,COc1ccc(-c2nc(C(=O)N3CCN(c4ncccn4)CC3)n3ccccc23)cc1,"inconclusive: 44.7 µM [inhibitor, partial curve]"
17,COc1cccc(CN2CCC3(CC2)OC(=O)N(Cc2ccccc2)C3(C)c2ccccc2)c1 (centres undefined),inactive
18,O=C(NCCc1ccccn1)c1ccnc(-c2nnc3ccc(Nc4ccccc4)nn23)c1,"inconclusive: 79.4 µM [inhibitor, partial curve, poor fit]"
19,O=C(NCCc1ccncc1)c1ccc(-c2nnc3ccc(NC(=O)C4CCC4)cn23)cc1,"inconclusive: 50.1 µM [inhibitor, partial curve, poor fit]"
